Laboratory results from article PMC10201431, “SirA inhibits the essential DnaA:DnaD interaction to block helicase recruitment during Bacillus subtilis sporulation” (Nucleic Acids Research, 2022).
Substitutions are numbered along the chain they refer to. Names and notes keep the numbering of the source. Where two headings read alike, the source gives them in different places. No constants are given. Whether binding was seen depends on the method and setting. Some binding calls cover weakened binding; strength is not graded here. For part of these data: Tags and fused reporters may be left off the sequences shown.

B1: DnaD, full-length wild type (bacterial two-hybrid fusion), P39787 1-232 (protein)
chain: MKKQQFIDMQEQGTSTIPNLLLTHYKQLGLNETELILLLKIKMHLEKGSYFPTPNQLQEGMSISVEECTNRLRMFIQKGFLFIEECEDQNGIKFEKYSLQPLWGKLYEYIQLAQNQTQERKAEGEQKSLYTIFEEEFARPLSPLECETLAIWQDQDQHDAQLIKHALKEAVLSGKLSFRYIDRILFEWKKNGLKTVEQAKIHSQKFRRVQAKQNEPQKEYKRQVPFYNWLEQ
B2: DnaD^F6A, full-length (bacterial two-hybrid fusion) (protein, UniProt P39787 1-232)
chain: B1 chain with F6A
B3: DnaA, full-length wild type, master initiator protein (bacterial two-hybrid fusion), P05648 1-446 (protein)
chain: MENILDLWNQALAQIEKKLSKPSFETWMKSTKAHSLQGDTLTITAPNEFARDWLESRYLHLIADTIYELTGEELSIKFVIPQNQDVEDFMPKPQVKKAVKEDTSDFPQNMLNPKYTFDTFVIGSGNRFAHAASLAVAEAPAKAYNPLFIYGGVGLGKTHLMHAIGHYVIDHNPSAKVVYLSSEKFTNEFINSIRDNKAVDFRNRYRNVDVLLIDDIQFLAGKEQTQEEFFHTFNTLHEESKQIVISSDRPPKEIPTLEDRLRSRFEWGLITDITPPDLETRIAILRKKAKAEGLDIPNEVMLYIANQIDSNIRELEGALIRVVAYSSLINKDINADLAAEALKDIIPSSKPKVITIKEIQRVVGQQFNIKLEDFKAKKRTKSVAFPRQIAMYLSREMTDSSLPKIGEEFGGRDHTTVIHAHEKISKLLADDEQLQQHVKEIKEQLK
B4: DnaD lacking the last eight amino acids (bacterial two-hybrid fusion) (domain or fragment, UniProt P39787 1-224)
chain: MKKQQFIDMQEQGTSTIPNLLLTHYKQLGLNETELILLLKIKMHLEKGSYFPTPNQLQEGMSISVEECTNRLRMFIQKGFLFIEECEDQNGIKFEKYSLQPLWGKLYEYIQLAQNQTQERKAEGEQKSLYTIFEEEFARPLSPLECETLAIWQDQDQHDAQLIKHALKEAVLSGKLSFRYIDRILFEWKKNGLKTVEQAKIHSQKFRRVQAKQNEPQKEYKRQV
B5: DnaD^L22A, full-length (bacterial two-hybrid fusion) (protein, UniProt P39787 1-232)
chain: B1 chain with L22A

Key:
Assay in all cases: two-hybrid; bacterial two-hybrid, T25 and T18 fragments of B. pertussis adenylate cyclase, full-length proteins, E. coli HM1784 (BTH101 Δrnh::kan), spotted on nutrient agar with X-gal, 30°C, 24-48 h
[1] = molecular target: DnaA, full-length wild type, master initiator protein (bacterial two-hybrid fusion) (B. subtilis) (UniProt P05648)
[2] = molecular target: T1, DnaB, full-length wild type, helicase co-loader protein (bacterial two-hybrid fusion) (B. subtilis) (UniProt P07908)
T1 sequence: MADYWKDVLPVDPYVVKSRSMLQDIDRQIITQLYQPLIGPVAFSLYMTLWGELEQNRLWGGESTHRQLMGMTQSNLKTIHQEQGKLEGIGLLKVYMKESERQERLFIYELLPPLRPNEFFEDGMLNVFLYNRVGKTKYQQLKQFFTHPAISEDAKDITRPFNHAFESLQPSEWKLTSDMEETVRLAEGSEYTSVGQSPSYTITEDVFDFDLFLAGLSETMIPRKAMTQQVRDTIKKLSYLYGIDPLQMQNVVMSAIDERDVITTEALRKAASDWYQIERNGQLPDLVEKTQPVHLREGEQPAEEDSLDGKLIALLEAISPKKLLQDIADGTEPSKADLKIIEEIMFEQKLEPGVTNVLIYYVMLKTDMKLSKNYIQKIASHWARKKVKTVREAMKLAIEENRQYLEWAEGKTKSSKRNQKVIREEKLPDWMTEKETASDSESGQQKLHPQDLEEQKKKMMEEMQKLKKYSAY

[3] = molecular target: T2, DnaB, full-length wild type, helicase co-loader protein (bacterial two-hybrid fusion) (B. subtilis), P07908; details: remark: other sources report otherwise
T2 chain: T1 sequence

[4] = molecular target: T1, DnaB, full-length wild type, helicase co-loader protein (bacterial two-hybrid fusion) (B. subtilis); remark: listed apart in the source

Molecule | binding [1] | binding [2] | binding [4] | further results
DnaA^W27A, full-length (bacterial two-hybrid fusion) (from UniProt P05648 1-446) | binds | binds |  | 
DnaA^T26A, full-length (bacterial two-hybrid fusion) (from UniProt P05648 1-446) | binds | binds |  | 
DnaA, full-length wild type, master initiator protein (bacterial two-hybrid fusion) (from UniProt P05648 1-446) | binds |  |  | 
DnaA^F49A, full-length (bacterial two-hybrid fusion) (from UniProt P05648 1-446) | binds | binds |  | 
B1 |  |  |  | binding [3]: binds
B2 |  |  | binds | 
B3 |  |  |  | binding [3]: binds
B4 |  |  | no binding | 
B5 |  |  | no binding | 
